Test results taken from article PMC4336329 (PLoS ONE, 2015).
In all, about 310,000 compounds went through this assay and about 14,000 (4.5%) showed an effect of 50% or more. Effects have a minus sign here. This is one part of the list.

target: human ether-à-go-go-related gene (hERG) potassium channel (human, UniProt Q12809); test: primary screen, population patch clamp on CHO cells stably expressing hERG
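Further: peak tail current of the secondary pulse compared with the same well before compound.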

Chain of human ether-à-go-go-related gene (hERG) potassium channel (Q12809 whole entry, looked up): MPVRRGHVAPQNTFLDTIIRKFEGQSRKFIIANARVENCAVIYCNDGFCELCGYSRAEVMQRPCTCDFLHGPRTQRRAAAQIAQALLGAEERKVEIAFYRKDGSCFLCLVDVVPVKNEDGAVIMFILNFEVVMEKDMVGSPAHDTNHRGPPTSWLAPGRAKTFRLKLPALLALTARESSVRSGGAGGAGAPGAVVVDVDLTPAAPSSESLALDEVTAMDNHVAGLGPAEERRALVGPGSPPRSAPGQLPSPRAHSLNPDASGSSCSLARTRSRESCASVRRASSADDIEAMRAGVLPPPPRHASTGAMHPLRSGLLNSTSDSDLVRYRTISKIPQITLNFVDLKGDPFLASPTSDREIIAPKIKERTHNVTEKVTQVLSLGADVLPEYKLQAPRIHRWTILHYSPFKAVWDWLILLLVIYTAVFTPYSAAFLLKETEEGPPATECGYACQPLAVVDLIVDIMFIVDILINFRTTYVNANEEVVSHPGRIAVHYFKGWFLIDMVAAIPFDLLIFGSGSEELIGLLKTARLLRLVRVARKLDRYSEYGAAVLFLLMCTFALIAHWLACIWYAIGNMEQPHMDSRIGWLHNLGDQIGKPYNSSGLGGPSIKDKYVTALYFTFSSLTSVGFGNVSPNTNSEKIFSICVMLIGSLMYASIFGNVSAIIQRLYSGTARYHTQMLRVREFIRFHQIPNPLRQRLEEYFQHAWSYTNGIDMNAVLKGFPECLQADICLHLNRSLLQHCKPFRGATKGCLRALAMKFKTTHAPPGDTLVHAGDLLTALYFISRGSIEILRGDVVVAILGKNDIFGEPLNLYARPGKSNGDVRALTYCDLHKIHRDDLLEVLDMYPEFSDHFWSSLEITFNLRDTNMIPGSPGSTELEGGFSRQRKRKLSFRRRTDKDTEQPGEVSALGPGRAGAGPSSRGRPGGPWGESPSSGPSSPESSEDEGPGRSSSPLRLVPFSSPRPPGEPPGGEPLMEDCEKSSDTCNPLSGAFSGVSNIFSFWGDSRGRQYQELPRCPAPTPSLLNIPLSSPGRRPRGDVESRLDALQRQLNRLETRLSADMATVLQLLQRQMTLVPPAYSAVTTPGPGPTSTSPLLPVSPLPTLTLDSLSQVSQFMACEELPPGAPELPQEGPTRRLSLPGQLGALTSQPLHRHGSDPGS

| Structure (SMILES) | hERG current change (%, negative = inhibition) at 10uM [%] |
| --- | --- |
| O=C(COC(=O)C1CC2C=CC1C2)NCc1ccc(F)cc1 (stereo not shown) | 4.12 |
| Cc1nc(=O)c(-c2ccccc2)c(C)n1-c1ccccc1 | 14.4 |
| O=C(Nc1ccsc1C(=O)NC1CCCCC1)c1ccccc1 | 7.83 |
| O=C(COC(=O)c1cccc(C(=O)OCC(=O)c2ccc(Br)cc2)n1)c1ccc(Br)cc1 | 1.29 |
| CSCC[C@H](NC(=O)C1CCC(CNC(=O)[C@@H]2CCCN2C(=O)OC(C)(C)C)CC1)C(=O)O (stereo partly shown) | 4.71 |
| CC(C)(C)Sc1ccc(N)nc1.Cl | -2.85 |
| CC1CCCN(C(=O)c2ccc3c(c2NCCO)C(=O)c2ccccc2C3=O)C1 (stereo not shown) | -22 |
| Oc1ccccc1N1CCN(C(=S)NCCc2ccccc2)CC1 | -2.16 |
| COc1cc(CCC(=O)Nc2cnc3ccccc3c2)cc(OC)c1OC | -0.103 |
| CC1CCN(C(=O)N2c3ccccc3Sc3ccccc32)CC1 | -5.69 |
| COc1cc(NC(=O)COC(=O)Cc2ccsc2)cc(OC)c1 | 7.86 |
| CCC(C)N1C(=O)/C(=C\c2ccc(N3CCCCCC3)cc2)C(=O)NC1=S (stereo not shown) | -4.65 |
| O=C(Nc1ccc(F)cc1)Nc1cc(OCC(F)(F)F)cc(OCC(F)(F)F)c1 | 7.59 |
| CC1CCC(NC(=O)CN2CCN(S(=O)(=O)c3cccs3)CC2)CC1 (stereo not shown) | -16.5 |
| CC12CCC(=O)N1C(C(=O)N1CCN(S(=O)(=O)c3cccc(C(F)(F)F)c3)CC1)CS2 (stereo not shown) | -20.5 |
| COc1ccc(C2(C)NC(=O)N(CC(=O)Nc3ccc4c(c3)OCO4)C2=O)cc1OC (stereo not shown) | -8.35 |
| Cc1cccc(C)c1OCc1n[nH]c(=S)n1N | 15.5 |
| Cc1cc(Cl)ccc1OC(C)C(=O)Nc1ccccc1N1CCOCC1 (stereo not shown) | -10 |
| O=C(NC1CCCCC1)C(c1cccnc1)N(C(=O)c1csnn1)c1ccccc1F (stereo not shown) | -13.9 |
| CCN1CCCC(CO)(Cc2ccccc2)C1 (stereo not shown) | 13.3 |
| Cc1ccc(C)c(NS(=O)(=O)c2c(C)[nH]c(C)c2C(=O)N2CCCCC2)c1 | -6.67 |
| Cc1ccc(S(=O)(=O)CCC(=O)Nc2nnc(-c3cccs3)o2)cc1 | -6.77 |

| Structure (SMILES) | hERG current change (%, negative = inhibition) at 10uM [%] |
| --- | --- |
| COc1ccc(Cn2cc([N+](=O)[O-])nc2C)cc1[N+](=O)[O-] | -2.26 |
| COCCn1c(-c2cccs2)csc1=Nc1cccnc1 | -15.3 |
| Cc1ccc2cc3cc(C(=O)N4CC(C)CC(C)C4)oc3nc2c1 (stereo not shown) | 1.38 |
| CC(C)c1cc2cc3ccc(=O)oc3cc2o1 | 5.93 |
| CCCn1c(-c2ccncc2)n[nH]c1=S | 11.3 |
| COc1cccc(NC(=O)CSc2nnc(Cc3cccn3C)n2-c2ccc(F)cc2)c1 | -15.5 |
| Clc1ncn(CCOc2ccccc2)c1Cl | -0.142 |
| O=C(Cn1cc(C(=O)c2ccco2)c2ccccc21)NC1CC1 | -0.551 |
| COCCN(C(=O)COC(=O)c1cnc(C)cn1)c1c(N)n(Cc2ccccc2)c(=O)[nH]c1=O | -4.85 |
| Cc1ccc(NC(=O)COc2ccc(N3CC(C(N)=O)CC3=O)cc2)c(C)c1 (stereo not shown) | 6.84 |
| O=C(COc1ccccc1)Nc1nc(-c2ccncc2)cs1 | -7.97 |
| CC(CC(=O)N1CCN(S(=O)(=O)c2ccc([N+](=O)[O-])cc2)CC1)c1ccccc1 (stereo not shown) | -67.8 |
| Cn1nc(-c2ccccc2F)c2cc(C(=O)N3CCN(C(=O)c4ccco4)CC3)sc21 | -57.2 |
| O=C1c2ccccc2N2C(=O)c3ccccc3C2N1O (stereo not shown) | 22.5 |
| CCc1cc(CNC(=O)CC2C(=O)NCCN2Cc2c(F)cccc2Cl)on1 (stereo not shown) | 17.5 |
| Cc1ccc(N/N=C(/Sc2nnnn2-c2ccccc2)C(=O)c2ccccc2)cc1 | 4.62 |
| Cc1cc(Cl)ccc1NC(=O)CSc1n[nH]c(N)n1 | 19.7 |
| COc1ccc(N(C)S(=O)(=O)c2cccc(C(=O)Nc3ccc(-n4cnnn4)cc3)c2)cc1 | 6.15 |
| O=C(c1ccc(S(=O)(=O)N2CCOCC2)cc1)N(c1ccc(F)cc1)C1C=CS(=O)(=O)C1 (stereo not shown) | -16.5 |
| CCOCCCNS(=O)(=O)c1ccc2c(c1)oc(=O)n2CC(=O)OCC | 9.83 |
| COC(=O)C1=C(C)N(c2ccccc2)/C(=C/c2cccs2)C1=O | 3.92 |
| CCCCOP(=O)(c1ccc(N(C)C)cc1)C(O)c1ccc(OC)cc1 (stereo not shown) | -2.61 |

| Structure (SMILES) | hERG current change (%, negative = inhibition) at 10uM [%] |
| --- | --- |
| Cc1[nH]c2ccccc2c1CCN(Cc1cccs1)C(=S)Nc1ccccc1 | 14.4 |
| COc1cc(/C=N/NC(=O)Cn2nc([N+](=O)[O-])cc2C)cc(Br)c1OCc1ccccc1 | 17.1 |
| OCCN(Cc1ccccc1)C(=S)Nc1ccc(F)cc1 | 16.8 |
| Cc1c(Cl)cccc1NC(=O)CSc1nncn1-c1ccccn1 | 13 |
| CN(C)/C=N/NC(=O)C1Cc2c(ccc3ccccc23)O1 (stereo not shown) | 10.6 |
| COc1ccc(/C=N/NC(=O)c2[nH]nc3c2CCc2ccccc2-3)cc1OC | -4.02 |
| Cc1[nH][nH]c(=O)c1C=NCc1ccc(Cl)cc1 | 16.8 |
| Cc1ccccc1C(=O)NCC(=O)NNC(=S)NC(=O)c1ccccc1C | 9.99 |
| CC(=O)Nc1ccc(OC(=O)c2ccc(Br)c([N+](=O)[O-])c2)cc1 | 7.81 |
| Cc1nc2ccc3nc(NC(=O)C4COc5ccccc5O4)sc3c2s1 (stereo not shown) | 8.88 |
| COc1ccccc1C(=O)Nc1ccc(C2=NNC(=O)CC2C)cc1 (stereo not shown) | -5.65 |
| O=C(CSc1nnc(NC(=O)C2CCC2)s1)Nc1ccccc1 | -2.37 |
| Clc1ccc(OCCCc2nc(-c3ccncc3)no2)c(Cl)c1 | -0.0206 |
| CC1(OC(=O)CCc2ccccc2)C(=O)C=C2C=C(c3ccc(C#N)cc3)N(C3CCCC3)C=C2C1=O (stereo not shown) | -49.7 |
| CCc1ccc(OCC(=O)NNC(=O)CNC(=O)c2ccc(Br)o2)cc1 | -5.45 |
| CC(NC(=O)c1ccccc1Br)C1CC2CCC1C2 (stereo not shown) | -5.67 |
| Cc1ccccc1-n1c(SCC(=O)N2CCCCC2)nc(O)cc1=O | 25.5 |
| CC(C)C(NC(=O)C(NC(=O)C1OC2OC(C)(C)OC2C2OC(C)(C)OC12)C(C)C)C(=O)O (stereo not shown) | 15.2 |
| Cc1oc(-c2ccccc2Cl)nc1CS(=O)(=O)CC(=O)N1CCOCC1 | -5.4 |
| CCN1CCN(C(=O)c2ccc(COc3ccc(Cl)cc3)o2)CC1 | -52.5 |
| N#C/C(=C(/O)c1ccco1)c1nc2ccccc2s1 | 27.7 |
| Cc1cccc(NC(=O)C2CCCC2)c1 | -7.29 |

| Structure (SMILES) | hERG current change (%, negative = inhibition) at 10uM [%] |
| --- | --- |
| CN(C)c1nc(OCCNC(=O)Nc2ccccc2)nc(N(C)C)n1 | 4.56 |
| O=C(NC1CCCCC1)c1ccc2snnc2c1 | 12.8 |
| COc1ccc2c(c1[N+](=O)[O-])CCC/C2=N/OC(=O)c1ccccc1SC | 10.5 |
| O=C1c2cccc3cccc(c23)C(=O)N1Cc1ccco1 | 22.3 |
| N#Cc1cc(-c2ccc(Cl)cc2)cn(Cc2c(Cl)cccc2Cl)c1=O | -4.67 |
| O=C(NCCCN1CCOCC1)c1cc(-c2cccc(O)c2)on1 | 5.34 |
| N#CCc1c(C#N)c(N)nc(N2CCCC(CO)C2)c1C#N (stereo not shown) | 1.82 |
| COc1ccc(OC)c(C(=O)NC(CC(N)=O)c2ccc(N3CCCCCC3)c([N+](=O)[O-])c2)c1 (stereo not shown) | -12.6 |
| CCCC(=O)Nc1ccc2oc(-c3ccncc3)nc2c1 | 5.92 |
| CCOc1nc(CC)nc(NC(=O)NS(=O)(=O)c2ccccc2Cl)n1 | 19.5 |
| COc1ccc(CC(=O)Nc2ccc3nc(C)sc3c2)cc1OC | 7.73 |
| O/N=C/c1ccccc1OCc1ccccc1F | -1.83 |
| COc1ccc(C(=O)Nc2cc3c(cc2C#N)OCO3)cc1S(=O)(=O)NCc1ccco1 | -6.24 |
| O=C(Nc1ccc2c(c1)Cc1ccccc1-2)c1ccncc1 | 7.01 |
| CC(C)(C)c1ccc(C(=O)NNc2ncccc2-n2cccc2)cc1 | -1.1 |
| Cc1csc(NC(=O)C2CCCN(S(=O)(=O)c3ccc4c(c3)oc(=O)n4C)C2)n1 (stereo not shown) | -4.84 |
| COc1ccc(C(=O)NCCN2CCCC2)cc1.Cl | 3.56 |
| O=CN1CCN(C(C(=O)NC2CCCCC2)c2ccc(Cl)cc2)CC1 (stereo not shown) | -15 |
| O=C(Nc1ncnc2c1ncn2C1OC(COC(=O)c2ccccc2)C(F)C1O)c1ccccc1 (stereo not shown) | -25.7 |
| COc1ccc(CNC(=O)C[C@H]2C(=O)N(CCc3ccccc3)C[C@@H]2Cc2ccccc2)cc1 | -53 |
| Cc1ccc(C)c(Cn2c(=O)c3c(nc4n3CCN4Cc3ccco3)n(C)c2=O)c1 | -3.76 |
| COc1cc(C(=O)NC2CC(C)(C)NC(C)(C)C2)cc(OC)c1OC | 33.3 |
